Experimental findings from paper PMC6919601, “Identification of Plasmodium dipeptidyl aminopeptidase allosteric inhibitors by high throughput screening” (PLoS ONE, 2019) are described below.

Where “and” joins values, the source holds several entries; their conditions need not be identical. Equal entries are not always repeated. About 230 (0.21%) of roughly 110,000 compounds showed an effect of 50% or more. Some of the results follow.
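Note: 30 min substrate incubation versus DMSO and 10 µM JCP410 controls.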

For this test, the target named is DPAP1 (Plasmodium falciparum, UniProt Q8IIJ9). Description: primary screen, percent inhibition; read by cleavage of a fluorogenic dipeptide substrate; higher = more effect of the substance. Also on record: species or system P. falciparum D10 trophozoite lysates; single well.
DPAP1, sequence (Q8IIJ9 whole entry, looked up): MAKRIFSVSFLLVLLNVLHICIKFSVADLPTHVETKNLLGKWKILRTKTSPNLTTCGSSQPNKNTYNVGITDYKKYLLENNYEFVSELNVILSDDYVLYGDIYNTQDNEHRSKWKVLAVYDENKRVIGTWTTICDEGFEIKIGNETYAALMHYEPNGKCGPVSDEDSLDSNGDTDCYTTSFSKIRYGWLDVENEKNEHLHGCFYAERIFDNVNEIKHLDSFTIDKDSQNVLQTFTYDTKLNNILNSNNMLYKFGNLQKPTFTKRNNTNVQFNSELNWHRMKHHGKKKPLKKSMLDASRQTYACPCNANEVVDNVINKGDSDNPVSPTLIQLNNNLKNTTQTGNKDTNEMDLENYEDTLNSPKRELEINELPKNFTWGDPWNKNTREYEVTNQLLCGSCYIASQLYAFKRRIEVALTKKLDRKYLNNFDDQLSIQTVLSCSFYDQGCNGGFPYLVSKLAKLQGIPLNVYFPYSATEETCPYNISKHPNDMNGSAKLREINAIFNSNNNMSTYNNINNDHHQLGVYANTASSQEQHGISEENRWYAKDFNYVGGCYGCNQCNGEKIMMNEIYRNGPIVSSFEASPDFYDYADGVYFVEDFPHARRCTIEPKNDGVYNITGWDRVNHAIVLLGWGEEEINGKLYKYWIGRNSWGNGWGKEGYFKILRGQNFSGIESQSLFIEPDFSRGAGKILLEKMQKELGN
Take `COc1ccccc1CN1CCN(Cc2cc(OC)c(OC)c(OC)c2)CC1`: the “% Inhibition @ 10 uM” value is -17.9%.
The figure for `CCOc1ccc(NC(=O)CN2C(=O)S/C(=C/c3cccn3C)C2=O)cc1` is 2.36%; for `CC(C)CCN1CC(C(=O)NCc2ccccc2)CC1=O` (stereo not shown) it is 3.79%.
The figure for `CC(=O)Nc1ccc2oc(-c3ccccc3Br)nc2c1` is -1.99%.
The figure for `CCN1CCC(NCC(C)c2ccccc2)CC1` (stereo not shown) is 3.68%.
On to `CC1=C(C(=O)N2CCCCC2)C(c2cccs2)C2=C(O)CCCC2=N1` (stereo not shown), for which the “% Inhibition @ 10 uM” value is listed as -1.48%.
The figure for `CCc1[nH]nc2c1C1(C(=O)N(Cc3ccccc3)c3ccccc31)C(C#N)=C(N)O2` (stereo not shown) is -2.24%.
In the case of `CCCCS(=O)(=O)CC(O)COc1ccccc1` (stereo not shown), the “% Inhibition @ 10 uM” value came to 1.74%.
Take `CCc1ccc(C23OC(=O)C(C)(C)C2OC(=O)C3(C)C)cc1` (stereo not shown): the “% Inhibition @ 10 uM” value is recorded as 0.408%.
Regarding `O=C(Nc1nccs1)C1CC1(c1ccccc1)c1ccccc1` (stereo not shown), the “% Inhibition @ 10 uM” value is 4.67%.
The figure for `Cc1ccc(C)c(S(=O)(=O)NCC(=O)Nc2sc3c(c2C(N)=O)CCCCC3)c1` is 2.63%; for `C=CCSc1ncccc1C(=O)O` it is 10%.
The figure for `Cc1sc(NC(=O)c2ccc(F)cc2)c(CN2CCCC2)c1C` is -2.63%.
On to `Cc1cccc(C(=O)Nc2ccc(NC(=O)c3ccc(Br)o3)cc2)c1`, for which the “% Inhibition @ 10 uM” value is on record as 0.992%.
As for `Cc1ccc(Cn2c(CN3CCC(C)CC3)nc3c2c(=O)n(C)c(=O)n3C)cc1`, the “% Inhibition @ 10 uM” value is given as 2.9%.
The figure for `CCOc1ccc2nc(NC(=O)Cn3ncc4c5cc(C)ccc5nc-4c3O)sc2c1` is -3.64%; for `COc1ccc(C)cc1N(CC(=O)N1CCC(C)CC1)S(C)(=O)=O` it is -11%; for `COc1ccc(-n2nnc(-c3nc(-c4ccc(C)cc4)no3)c2N)cc1Cl` it is -5.65%.
In the case of `O=C(NCCCN1CCOCC1)c1ccc2nc(-c3ccc(F)cc3)c(-c3ccc(F)cc3)nc2c1`, the “% Inhibition @ 10 uM” value is reported as 5.17%.
The figure for `CC1CCCN(C(=O)Cn2ncc3c(=O)oc4ccccc4c32)C1` (stereo not shown) is -2.83%; for `CCOC(=O)c1ccc(NC(=O)c2cccnc2)cc1` it is 1.13%; for `Cc1cc(C(F)(F)F)c(C#N)c(SCC(N)=O)n1` it is 18.9%.
The figure for `O=C(Nc1ccc([N+](=O)[O-])cc1)c1ccc(Cl)cc1` is -3.66%.
`NC(=O)C1CCN(Cc2c(F)cccc2Cl)CC1`: the “% Inhibition @ 10 uM” value is listed as -3.8%.
On to `CCc1cc2c(cc3c(=O)n(CC(=O)NC4CCCC(C)C4C)nc(CC)n32)s1` (stereo not shown), for which the “% Inhibition @ 10 uM” value is -1.7%.
For `Cc1ccc(C(=O)NC=C(C#N)C#N)cc1`, the “% Inhibition @ 10 uM” value is given as -8.51%.
As for `CCOC(=O)c1c(S(=O)(=O)NCCCc2ccccc2)c(C)n(C)c1C`, the “% Inhibition @ 10 uM” value is on record as -3.94%.
With `COc1cc(/C=C/C(=O)N2CCOCC2)ccc1OCc1ccccc1`, the “% Inhibition @ 10 uM” value turned out to be 3.54%.
The figure for `CC1=CC2=NC(=O)/C(=C\c3ccc(-c4ccccc4)o3)C(=N)N2O1` is -1.43%; for `COc1ncnc2c1sc1nc3c(cc12)COC(C)(C)C3` it is 1.01%.
As to `N=C1/C(=C/c2ccc(O)cc2)C(=O)N=C2SC(C3CCCCC3)=NN12`, the “% Inhibition @ 10 uM” value is on record as 3.43%.
Turning to `CCCCCCc1ccc(C(=O)Nc2nnc(CC)s2)cc1`, the “% Inhibition @ 10 uM” value is -0.615%.
The figure for `Cc1ccc(NC(=O)c2cccc(C(=O)Nc3ccc(C)c(Cl)c3)c2)cc1Cl` is 3.47%.
The figure for `CCCc1n(CC(O)COc2cccc(C)c2)c2ccccc2[n+]1C` (stereo not shown) is -2.87%.
The figure for `CN1C(=O)NC(=O)/C(=C/c2ccc(-c3ccc(C(=O)O)cc3)o2)C1=O` is 7.67% and 2.94%; for `C=CCSc1nc2c(c(=O)n(C)c(=O)n2C)n1Cc1ccccc1` it is -3.69%; for `COc1cc(NC2=CC(=O)CC(C)(C)C2)cc(OC)c1OC` it is -1.37%.
For `CCN1CCN(C(=O)C(C)n2ncn3cccc3c2=O)CC1` (stereo not shown), the “% Inhibition @ 10 uM” value is recorded as -0.698%.
Turning to `CC(NC(=O)CCc1c[nH]c2ccccc12)c1ccccc1` (stereo not shown), the “% Inhibition @ 10 uM” value is -3.37%.
For the compound `O=C(Cc1coc2ccc3ccccc3c12)NC1CCCCC1`, the “% Inhibition @ 10 uM” value was 3.66%.
As for `CN1CN(C)c2cccc3cccc1c23`, the “% Inhibition @ 10 uM” value was -0.941%.
The figure for `O=[N+]([O-])c1ccc(N2CCCC2)cc1Sc1cccc2cccnc12` is -6.88%.
For `Fc1ccccc1OCCCCCN1CCOCC1`, the “% Inhibition @ 10 uM” value came out at 3%.
The figure for `Cc1ccc(CN2CCCN(C)CC2)c(C)c1` is -1.93%; for `NC(=O)CSc1cn(CC(=O)N2CCOCC2)c2ccccc12` it is -2.26%; for `Cc1cccc(-n2c(SCc3cc(=O)n4cc(Br)ccc4n3)nc3nncc-3c2O)c1` it is 4.47%.
The figure for `Cc1cc(N2C(=O)CC(C(C)c3ccccc3)C2=O)no1` (stereo not shown) is 2.1%; for `CC(=C\c1ccccc1)/C=C1/SC(=O)NC1=O` it is 1.37%.
The figure for `Cc1ccccc1Cn1c(C(=O)O)c(CNCC2CCCO2)c2ccccc21` (stereo not shown) is 0.277%.
With `CN(C)CCN1CCc2ccccc21`, the “% Inhibition @ 10 uM” value stood at 1.7%.
Turning to `CCN(Cc1ccccc1)C(=O)CSc1nc2ccncc2[nH]1`, the “% Inhibition @ 10 uM” value stood at 8.62%.
The figure for `COc1ccc(O)c(-c2cc(-c3ccc(Cl)cc3)[nH]n2)c1` is 2.78%; for `Cc1ccc(NC(=O)C2CCC(N3C(=O)C4C5C=CC(C6CC56)C4C3=O)CC2)cc1` (stereo not shown) it is -3.04%.
Take `Cc1nc2sccc2c(=O)n1-c1ccccc1Cl`: the “% Inhibition @ 10 uM” value was -4.72%.
The figure for `Oc1nc(S)nc(O)c1-c1ccccc1` is -0.771%; for `CN1CCc2nc3ccccc3c(C(=O)O)c2C1` it is -1.99%.
The figure for `CC1CCN(c2nc3ccc(C(=O)NCCCN4CCCCC4C)cc3s2)CC1` (stereo not shown) is 1.03%.
Turning to `CCOC(=O)N1CCC(NC(=O)C2=C(C)C(=O)OC23CCCCC3)CC1`, the “% Inhibition @ 10 uM” value was -0.138%.
The figure for `COCCNC(=O)c1ccc2c(c1)ncn2-c1ccc(C)c(Cl)c1` is -1.99%; for `Cn1nc(C(=O)N2CCN(C(=O)c3ccco3)CC2)c2c1-c1ccccc1SC2` it is 12%.
The figure for `Cc1cccc2c1NC(=O)/C2=C1\SC(Nc2ccc(F)cc2)=NC1=O` is -3.18%; for `C=CCSc1nc(-c2cccs2)ccc1C#N` it is -4.41%; for `CC(C)(C)N1COc2ccc3c(-c4ccccc4)cc(=O)oc3c2C1` it is 14.6%.
Consider `Cc1cc(C)nc(SCc2ccc(Cl)cc2)n1`, for which the “% Inhibition @ 10 uM” value was determined as 1.13%.
Turning to `Cc1cc(C)nc(SCCn2c(N3CCC(C)CC3)nc3c2c(=O)n(C)c(=O)n3C)n1`, the “% Inhibition @ 10 uM” value is 2.41%.
In the case of `CN1CCN(Cc2nc(N)nc(Nc3ccccc3)n2)CC1`, the “% Inhibition @ 10 uM” value is given as -3.23%.
In the case of `COc1cccc(OC)c1C(=O)N1CCN(C(=O)c2ccco2)CC1`, the “% Inhibition @ 10 uM” value is reported as -0.641%.
The figure for `CCOC(=O)c1cc(C)n(CCc2ccccc2)c1C` is -5.03%.
Turning to `O=C(O)C1Cc2c([nH]c3ccccc23)C(c2ccc(C(F)(F)F)cc2)N1` (stereo not shown), the “% Inhibition @ 10 uM” value is given as -2.21%.
The figure for `O=c1/c(=C/C=C/c2ccccc2)sc2nc(-c3cccnc3)nn12` is 0.222%.
The figure for `O=C(Cn1c2c(c(-c3ccccc3)cc1=O)CCCC2)N1CCCC1` is -3.94%; for `Cc1ccc(S(=O)(=O)CCC(=O)O)cc1` it is -1.77%; for `N#CCNC(=O)[C@H](CSCc1ccccc1)NC(=O)c1cccc(N)c1` it is -5.21%.
On to `Cc1ccc(C)c(OCC(O)CN2CCN(C)CC2)c1` (stereo not shown), for which the “% Inhibition @ 10 uM” value is listed as 10.9%.
For the compound `Cc1ccc(NS(=O)(=O)c2cc(Cl)ccc2Cl)c(C)c1`, the “% Inhibition @ 10 uM” value was 0.135%.
Consider `CC1=C(C(N)=S)C(c2ccccc2F)C2=C(O)c3ccccc3C2=N1` (stereo not shown), for which the “% Inhibition @ 10 uM” value is listed as -3.77%.
On to `CC(=O)c1c(C)nc(S)c(C#N)c1-c1ccccc1`, for which the “% Inhibition @ 10 uM” value is 39.2%.
The figure for `CCCNS(=O)(=O)c1cc(C(C)C)c(OC)cc1C` is 0.895%; for `CCCCN(C)c1ncnc2onc(-c3ccc(Cl)cc3)c12` it is -7.65%.
The figure for `OCCN1CCN(CCN2CCCC(c3ccc(F)cc3)c3ccc(F)cc32)CC1` (stereo not shown) is -7.31%.
The figure for `CC(C)(C)Sc1cc(C(=O)O)sc1C(=O)O` is -4.01%; for `CC1CCN(S(=O)(=O)c2ccc3nc(O)cc(C(=O)NCCc4ccccc4)c3c2)CC1` it is 2.79%; for `COc1cccc2c1cc1c(=O)n(CC(=O)N3CCN(Cc4ccccc4)CC3)nc(C)n12` it is -1.7%.
For `Cc1[nH]nc2c1C(C1CC=CCC1)C(C#N)=C(N)O2` (stereo not shown), the “% Inhibition @ 10 uM” value is reported as 0.121%.
The figure for `CCCCOc1ccc(C(=O)NCc2nnc(S)n2-c2cccc(Cl)c2)cc1` is 36.7%; for `CCN(C(=O)c1cc2c(=O)n3cccc(C)c3nc2n1C)c1cccc(C)c1` it is 13.6%.
The figure for `Cn1cccc1CNCCCN1CCOCC1` is 0.032%.
Consider `COc1ccc(CCNC(=O)C(=O)NCC(c2cccnc2)N2CCOCC2)cc1OC` (stereo not shown), for which the “% Inhibition @ 10 uM” value turned out to be 0.00665%.
The figure for `COc1ccc(OC)c(NC(=O)COc2ccc(Br)c(C)c2)c1` is 5.42%; for `CC1CN(Cc2nc3c(c(=O)n(C)c(=O)n3C)n2CCc2ccccc2)CC(C)O1` (stereo not shown) it is -7.05%.
Turning to `CC(C)NC(=O)c1ccc(CS(=O)c2cccc(Cl)c2)o1` (stereo not shown), the “% Inhibition @ 10 uM” value is recorded as -0.999%.
The figure for `Cc1ccccc1OCCSc1nc2ccccc2n1CCC(=O)O` is 4.78%; for `CCOC(=O)N1CCN(Cc2nc3c(c(=O)n(C)c(=O)n3C)n2Cc2cccc3ccccc23)CC1` it is 4.51%.
As to `Cc1sc2s[n+](CCCS(=O)(=O)O)c(C)c2c1C`, the “% Inhibition @ 10 uM” value is given as -1.33%.
The figure for `O=C(COc1ccc(Cl)cc1Cl)Nc1ccc(CN2CCOCC2)cc1` is -5.34%.
The figure for `COc1ccc(C(=O)N2CCC(N3CCCCCC3)CC2)cc1` is 1.91%.
The figure for `C=CCc1c(C)nc(SC)nc1Nc1ccc([N+](=O)[O-])cc1` is -4.23%; for `Nc1nc(CSc2nnnn2Cc2ccccc2)nc(N2CCOCC2)n1` it is 0.503%.
Regarding `CCn1c(NC(=O)Nc2ccc(Cl)c(Cl)c2)nc2ccccc21`, the “% Inhibition @ 10 uM” value was 0.36%.
The figure for `Cc1cccc(OCc2nc(C#N)c(N3CCOCC3)o2)c1` is -2.75%; for `COc1ccc(C2CC3=Nc4ccccc4NC(c4cccs4)C3=C(O)C2)cc1` (stereo not shown) it is 2.45%; for `Cc1ccccc1Cn1c2ccccc2c2cnn(CC(=O)NCc3ccc4c(c3)OCO4)c(=O)c21` it is 1.8%.
Consider `CCc1ccc(NC2=C(Cl)C(=O)N(Cc3ccccc3)C2=O)cc1`, for which the “% Inhibition @ 10 uM” value is on record as -0.68%.
